Assay results taken from PubChem BioAssay AID1159614 (National Center for Advancing Translational Sciences (NCATS), 2016).
About 65 (0.1%) of roughly 45,000 compounds were called active. The call rests on the fitted dose curve; in most records, active means well fitted activation curve with a large enough effect; inconclusive means small, poorly fitted or top-dose-only effect; inactive means no such curve, though single readings can be large or run the other way. The list shows a part of the results.

target: Galactocerebrosidase (Homo sapiens) (UniProt P54803); assay: A Novel Cell-Based Assay to Identify Small Molecules for B -Galactocerebrosidase; conditions: 145M-Twi-hGALC-G270D cells, HMU-beta-Gal fluorescence, 48 h; series mostly up to 57.5 µM; activation: at the top concentration; further: 0% is about no effect; nearly all actives have a fitted effect of over 65% in size
Summary of the method: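 qHTS, 1536-well; 145M-Twi-hGALC-G270D cells (WT line also made) in DMEM/F12 + 10% FBS; compound incubation on live cells; HMU-β-gal 0.1 mM final, pH 5.2, NaTC; carbonate stop; fluorescence increase = enhanced residual activity.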

Sequence of UniProt P54803 (P54803 whole entry, looked up): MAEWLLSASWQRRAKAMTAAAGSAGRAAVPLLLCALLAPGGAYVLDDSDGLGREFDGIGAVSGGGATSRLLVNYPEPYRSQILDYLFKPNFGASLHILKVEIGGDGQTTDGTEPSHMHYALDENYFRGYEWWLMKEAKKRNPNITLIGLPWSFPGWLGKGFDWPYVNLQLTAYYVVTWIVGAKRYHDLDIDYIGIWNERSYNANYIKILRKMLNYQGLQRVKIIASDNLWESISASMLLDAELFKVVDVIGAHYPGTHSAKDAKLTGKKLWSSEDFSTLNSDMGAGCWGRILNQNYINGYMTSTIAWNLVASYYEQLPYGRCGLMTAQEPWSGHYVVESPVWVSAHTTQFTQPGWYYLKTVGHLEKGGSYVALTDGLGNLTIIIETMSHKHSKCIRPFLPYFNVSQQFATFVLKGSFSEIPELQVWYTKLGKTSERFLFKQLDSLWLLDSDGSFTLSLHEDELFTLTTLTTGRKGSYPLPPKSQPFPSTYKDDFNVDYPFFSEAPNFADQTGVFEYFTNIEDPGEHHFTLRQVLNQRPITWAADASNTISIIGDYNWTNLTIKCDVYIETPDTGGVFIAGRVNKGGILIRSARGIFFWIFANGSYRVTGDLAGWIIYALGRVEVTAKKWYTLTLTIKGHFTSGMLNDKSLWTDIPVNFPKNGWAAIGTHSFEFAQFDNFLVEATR

| SMILES | activation |
| --- | --- |
| O=C(Nc1ccc2nc(SCCOc3ccccc3Cl)sc2c1)c1ccc2c(c1)OCO2 | inactive: -2.58% |
| COc1ccc(CC(=O)Nc2cc(-c3cn4cccnc4n3)ccc2OC)cc1 | inactive: 6.34% |
| Cc1c(C(=O)N(Cc2ccco2)Cc2ccccc2Cl)oc2ccc(F)cc12 | inactive: -8.45% |
| COc1cc(OC)c(NC(=O)C(Cc2ccccc2)NS(=O)(=O)c2cccc3nsnc23)cc1Cl (stereo not given) | inactive: -24.9% |
| CN(C)c1ccc(NC(=O)CSc2nc3ccsc3c(=O)n2CCCCCC(=O)O)cc1 | inactive: -9.14% |
| COc1ccc(OC(C)C(=O)NCc2nc(-c3cccc(C)c3)no2)cc1 (stereo not given) | inactive: -19.3% |
| CCCCNC(=O)c1cnc2sc(N3CCCCCC3)nn2c1=O | inactive: -12.6% |
| COc1ccc(C)cc1NC(=O)Nc1ccccc1OCc1cc(=O)n2ccccc2n1 | inactive: -1.31% |
| Cc1ccccc1-c1noc(-c2ccc(N3CCN(C)CC3)c([N+](=O)[O-])c2)n1 | inactive: -21.3% |
| Cc1cc(C)c(NC(=O)C(=O)NCC(c2cccnc2)N2CCN(Cc3ccccc3)CC2)c(C)c1 (stereo not given) | inactive: -10.4% |
| COc1cccc(NC(=O)CSC2=Nc3ccccc3C3=NC(CC(=O)NCc4ccc5c(c4)OCO5)C(=O)N23)c1 (stereo not given) | inactive: -7.67% |
| O=C(CSc1nc2nccnc2c(=O)n1CCc1c[nH]c2ccccc12)Nc1ccc(F)cc1 | inactive: 2.17% |
| COc1ccc(CC(=O)N(Cc2nc(-c3ccc(C)cc3)no2)C(C)C)cc1 | inactive: -22.7% |
| COc1ccc2c(c1)c1c(c(=O)n(-c3ccccc3)c(=O)n1CC(=O)NCc1ccc(C)cc1)n2C | inactive: -10.5% |
| CSc1nn(Cc2cccc(Cl)c2)c(N(C(C)=O)C(C)=O)c1S(=O)(=O)c1ccccc1 | inactive: 1.74% |
| COc1ccc(-n2cc(C(=O)OCc3ccc(Cl)cc3)c3ccccc3c2=O)cc1 | inactive: -3.01% |
| CN(C)c1ccc(C(CNS(=O)(=O)c2ccc(F)cc2)N2CCOCC2)cc1 (stereo not given) | inactive: -14.7% |
| Cn1c(=O)c(=O)n(C)c2cc(S(=O)(=O)N3CCCC3C(=O)Nc3ccc(F)cc3)ccc21 (stereo not given) | inactive: 11.6% |
| COc1ccc(S(=O)(=O)N(CC(=O)NCCSCc2ccccc2)c2ccc(C)cc2)cc1 | inactive: -7.74% |
| Cc1ccc(NC(=O)CSc2ccc(-c3ccccn3)nn2)cc1F | inactive: 2.76% |
| CCOc1ccc(CNC(=O)Cn2ccc3cc(S(=O)(=O)N4CCCCC4)ccc32)cc1 | inactive: -11% |
| Cc1c(C(=O)OC2CCCCCC2)[nH]c2c1C(=O)CC(c1ccc(N(C)C)cc1)C2 (stereo not given) | inactive: -15.8% |
| COc1cc(OC)cc(C(=O)Nc2cc(-c3nc4cccnc4s3)ccc2C)c1 | inactive: -6.69% |
| CCC(C(=O)Nc1ccc(C(=O)OC)cc1)n1nc(-c2ccc(C)c(C)c2)ccc1=O (stereo not given) | inactive: -8.65% |

| SMILES | activation |
| --- | --- |
| COc1ccc(NC(=O)C2CCN(S(=O)(=O)c3ccc4c(c3)CCCC(=O)N4)CC2)c(OC)c1 | inactive: -12.8% |
| CCOc1ccc(Nc2sc(C(=O)c3cccc(OC)c3)c(N)c2S(=O)(=O)c2ccccc2)cc1 | inactive: -18.8% |
| O=S(=O)(c1ccc(-n2cnnn2)cc1)N1CCN(c2cccc(C(F)(F)F)c2)CC1 | inactive: -16.5% |
| Cc1oc(C)c2c(=O)cc(-c3ccc4c(c3)OCO4)cc(OC(=O)c3cccc(Cl)c3)c12 | inactive: -26.6% |
| N#Cc1c(C(F)(F)F)cc(-c2cccs2)nc1SCC(=O)Nc1cccc(C(F)(F)F)c1 | inactive: -17% |
| COc1ccc(S(=O)(=O)N(Cc2nc(-c3ccc(Cl)cc3)no2)C2CCCCC2)cc1 | inactive: 3.3% |
| Cc1ccc(S(=O)(=O)NCc2ccc(C(=O)NCCc3cccc(C)c3)cc2)cc1 | inactive: -17.2% |
| Cc1ccc(Cn2c(=O)n(-c3cc(C)cc(C)c3)c(=O)c3oc4ccccc4c32)cc1 | inactive: -12.1% |
| O=C(c1ccccc1Br)N1CCC(c2nc3ccccc3o2)CC1 | inactive: -6.64% |
| COC(=O)c1ccc(Cl)cc1NC(=O)N(Cc1ccc(OC)cc1)C1CCN(C(C)=O)CC1 | inactive: -0.504% |
| CCCCOC(=O)c1cccc(NC(=O)/C=C/c2ccccc2Cl)c1 | inactive: -30.1% |
| O=C(Cn1c(SCC(=O)Nc2ccc(F)cc2)nc2ccccc21)NCc1ccccc1Cl | inactive: -4.22% |
| COc1ccc(OC)c(NC(=O)CSc2nc3ccccc3c(=O)n2CCC(=O)NC2CCCCC2)c1 | inactive: -14.8% |
| COc1ccccc1NC(=O)C(Cc1ccccc1)NS(=O)(=O)c1cccc2nsnc12 (stereo not given) | inactive: -22.6% |
| CCOC(=O)COc1ccc(F)cc1C(=O)c1ccn2nc(-c3ccc(C)cc3)cc2n1 | inactive: -7.66% |
| CN1C(=O)C(C)(C)c2cc(S(=O)(=O)N3CCCC3C(=O)Nc3ccc(F)cc3)ccc21 (stereo not given) | inactive: -9.49% |
| COc1cc(Cl)c(C)cc1NC(=O)c1sc2nc(C)cc(C)c2c1N | inactive: -21.5% |
| Cc1ccsc1CN(C(=O)COc1cccc(C)c1C)C1CCS(=O)(=O)C1 (stereo not given) | inactive: -20.6% |
| COc1cc(C(=O)N(Cc2cccnc2)c2nc3cc(C)c(C)cc3s2)cc(OC)c1OC | inactive: -3.85% |
| COc1ccc(NC(=O)Cn2c(=O)n(Cc3ccco3)c(=O)c3oc4ccccc4c32)cc1Cl | inactive: -6.94% |
| COc1cc2c(cc1NC(=O)COc1ccc(Cl)cc1)oc1ccccc12 | inactive: -33.4% |
| Clc1ccccc1CN1CCc2nc(N3CCN(c4ncccn4)CC3)ncc2C1 | inactive: -3.57% |
| Cc1nnc(N2CCC(C(=O)NC(C)C)CC2)c2nn(-c3ccccc3)c(C)c12 | inactive: 5.06% |
| O=C(Nc1ccc(F)cc1)c1cc2cc3ccc(Cl)cc3nc2o1 | inactive: -15.7% |

| SMILES | activation |
| --- | --- |
| Cc1ccc(-c2noc(-c3nnn(-c4ccc(Br)cc4F)c3C)n2)cc1 | inactive: -12.9% |
| Cc1ccccc1CNCc1c(C(=O)O)c(C)n(Cc2ccc(F)cc2Cl)c1C | inactive: -15.3% |
| COc1ccc(-n2ncc3c2ncn2nc(Cc4ccccc4)nc32)cc1 | inactive: -8.55% |
| CC(=O)Nc1ccc(C(=O)Nc2ccc3c(c2)N(C2CCCC2)C(=O)c2ccccc2S3)cc1 | inactive: 2.87% |
| Cc1cc(C)cc(NC(=O)c2cc(S(=O)(=O)N3CCCC3)ccc2F)c1 | inactive: -13.3% |
| Cn1nc(-c2ccccc2F)c2cc(C(=O)NCc3cccc(Cl)c3)sc21 | inactive: -17.2% |
| Cc1ccc(C)c(NC(=O)c2nnn(Cc3ccc(F)cc3Cl)c2N)c1 | inactive: -24.7% |
| Cc1cccc(CSc2nnc(CCCCCN)o2)c1 | inactive: 5.96% |
| COc1ccc(OC)c(CCNC(=O)Cn2nc(C)n3c(cc4sccc43)c2=O)c1 | inactive: -14.7% |
| COc1ccc(-n2ncc(C(=O)NCCN3CCOCC3)c2C2CCN(C(=O)OC(C)(C)C)CC2)cc1 | inactive: 2.7% |
| CCc1c(C)sc2c1CCN(C(=O)Nc1cc(C)ccc1C)C2c1ccc(OC)cc1 (stereo not given) | inactive: -17.9% |
| Cc1nc(-c2cccc(S(=O)(=O)N3CCC(C(=O)NCc4ccccc4Cl)CC3)c2)no1 | inactive: -1.88% |
| O=C(c1cc2c(s1)-c1ccccc1OC2)N1CCN(c2ccc(F)cc2)CC1 | inactive: -16.9% |
| COc1ccc(CCNS(=O)(=O)c2ccc(N3CCCCS3(=O)=O)cc2)cc1 | inactive: -9.07% |
| CCC1Oc2ccccc2N(CC(=O)NCCc2ccc(OC)c(OC)c2)C1=O (stereo not given) | inactive: -3.62% |
| O=c1oc2ccc3ccccc3c2cc1-c1nnc(Nc2cccc(C(F)(F)F)c2)s1 | inactive: -1.38% |
| COc1cc(OC)c(NC(=O)N2CCc3cc(S(=O)(=O)N4CCC(C)CC4)ccc32)cc1Cl | inactive: -26.3% |
| CC(=O)c1ccc(NC(=O)CSc2ccc3nnc(CCNS(=O)(=O)c4ccc(C)cc4)n3n2)cc1 | inactive: -17.4% |
| Cc1ccc(Nc2ncc(C(=O)Nc3ccc(F)cc3F)c3ccccc23)cc1Cl | inactive: -18.3% |
| Cc1ccc(CN(C(=O)COc2ccc([N+](=O)[O-])cc2)c2ccccn2)o1 | inactive: -8.42% |
| CCC1CCCCN1S(=O)(=O)c1cc2c(cc1C)NC(=O)CO2 (stereo not given) | inactive: -0.916% |
| COc1ccc(CNC(=O)c2nn(C)c3c2CS(=O)(=O)c2ccccc2-3)cc1 | inactive: -9.36% |
| CC(=O)c1cccc(NC(=O)C2CCN(S(=O)(=O)c3ccccc3)CC2)c1 | inactive: 16.8% |
| c1ccc2c(c1)ncc1nncn12 | inactive: 1.32% |

| SMILES | activation |
| --- | --- |
| CC1CCC(NC(=O)Cn2ncc3c4ccccc4n(Cc4ccc(F)cc4)c3c2=O)CC1 (stereo not given) | inactive: -5.94% |
| O=c1[nH]c2ccc(NCc3ccc(-c4ccc(F)cc4)o3)cc2[nH]1 | inactive: -4.85% |
| CCc1nnc(SCC(=O)Nc2cccc(C(F)(F)F)c2)c2cc3oc(C)cc3n12 | inactive: -11.1% |
| COc1ccc(/C=C/C(=O)Nc2ccc3nc4c(c(Nc5ccc(OC)c(OC)c5)c3c2)CCCC4)cc1 | inactive: -24% |
| COc1ccc(-c2noc(CSc3nnc(Cc4ccccc4)n3-c3cccc(C)c3)n2)cc1 | inactive: -7.61% |
| CCOC(=O)Cc1c(C)nc2c(-c3ccc(Cl)cc3)c(C(F)(F)F)nn2c1C | inactive: -5.47% |
| CCCc1nn2cc(-c3ccc(C)c(C)c3)nc2s1 | inactive: 0.427% |
| COc1ccc(CCNC(=O)CCS(=O)(=O)c2cc3c(cc2Cl)NC(=O)CO3)cc1OC | inactive: 0.906% |
| O=C(COc1ccccc1)Nc1nnc(SCc2cc(=O)n3cc(Cl)ccc3n2)s1 | inactive: 2.64% |
| CC1=C(C(=O)O)N2C(=O)[C@@H](NC(=O)[C@H](N)c3ccccc3)[C@H]2SC1 | inactive: -6.44% |
| Cc1oc(-c2ccccc2Cl)nc1CS(=O)(=O)CC(=O)NC(C)c1ccccc1 (stereo not given) | inactive: -2.67% |
| CCC(C(=O)Nc1ccccc1OC)n1c(C(=O)OC)cc2sc(Cl)cc21 (stereo not given) | inactive: -23.9% |
| Cc1ccc2onc(CNC(=O)NCc3ccccc3)c2c1 | inactive: -18.7% |
| CCOc1ccccc1CNC(=O)CSc1nnc(C)c2c(C)n(-c3ccccc3)nc12 | inactive: -16.6% |
| CC(=O)N1CCc2cc(S(=O)(=O)NC(CC(C)C)C(=O)NCCc3cccc(C)c3)ccc21 (stereo not given) | inactive: -3.13% |
| CCOCCCNC(=O)c1ccc2c(=O)n(CCc3ccc(OC)c(OC)c3)c(=O)[nH]c2c1 | inactive: -13.8% |
| Cc1ccc2oc(-c3cc(NC(=O)c4oc5ccccc5c4C)ccc3Cl)nc2c1 | inactive: 24.3% |
| Cc1ccc2oc(=O)n(Cc3ccccc3Cl)c2c1 | inactive: 19.4% |
| CCc1ccc(OCC(=O)Nc2cc(-c3nc4cc(C)ccc4o3)ccc2C)cc1 | inactive: 7.53% |
| CN(Cc1ccc(F)cc1)S(=O)(=O)c1nnc(NC(=O)c2ccccc2)s1 | inactive: -7.47% |
| CCCNC(=O)C1CCC(CNS(=O)(=O)c2ccc3c(c2)CC(C)N3C(C)=O)CC1 (stereo not given) | inactive: -7.02% |
| Cc1ccc(NC(=O)c2oc3ccccc3c2NC(=O)C23CC4CC(CC(C4)C2)C3)cc1 | inactive: -0.849% |
| Cc1ccc(C(=O)NCc2ccccc2)cc1NC(=O)c1nsc2ccccc12 | inactive: -4.91% |
